Data on eight sequences can be found in the supplement of paper PMC12230231.

± gives the standard deviation of the averaged measurements. Restriction of a single-cycle SIVsab GFP reporter by TRIM5α v1-loop variants in CRFK cells. Human variants: read share among cells still uninfected after two challenges over input, higher = gained restriction. Rhesus variants: share among infected cells over input, higher = lost restriction. Reporter dose not given per row. No active / inactive call per row; the paper calls a change when both replicates lie above its controls (mean + 2 SD of stop or wild-type variants, or the top frameshift score). Residues outside the varied loop are taken from Swiss-Prot. The paper reads the human single-substitution scores as noise; they and the rhesus combinations repeat poorly (rank correlation 0.3 to 0.4), indel scores repeat only for the top variants, rhesus substitutions well (0.9).

The data set has as its system SIVsab (simian immunodeficiency virus of sabaeus monkeys), single-cycle GFP reporter, in CRFK cells. The data set can be described thus: enrichment among infected cells over input (fold); higher = weaker restriction. The following applies: library: human / rhesus combinations. On the procedure:
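Pools of CRFK cells expressing variants of the TRIM5α v1 loop were challenged with the single-cycle reporter, sorted by GFP and sequenced; mean of two replicates.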
Take “MASGILLNVKEEVTCPICLELLTEPLSLHCGHSFCQACITANHKKSMLYKEGERSCPVCRISYQPENIQPNRHVANIVEKLREVKLSPEEGQKVDHCARHGEKLLLFCQEDSKVICWLCERSQEHRGHHTFLMEEVAQEYHVKLQTALEMLRQKQQEAEKLEADIREEKASWKIQIDYDKTNVSADFEQLREILDWEESNELQNLEKEEEDILKSLTKSETEMVQQTQYMRELISELEHRLQGSMMDLLQGVDGIIKRIENMTLKKPKTFHKNQRRVFRAPDLKGMLDMFRELTDARRYWVDVTLAPNNISHAVIAEDKRQVSSRNPQIMYQARGTRYTFQSFTNFNYCTGVLGSQSITSGKHYWEVDVSKKSAWILGVCAGFQSDAMYNIEQNENYQPKYGYWVIGLQEGVKYSVFQDGSSHTPFAPFIVPLSVIICPDRVGVFVDYEACTVSFFNITNHGFLIYKFSQCSFSKPVFPYLNPRKCTVPMTLCSPSS [rhesus TRIM5α, 332-344 = QARGTRYTFQSFT]”: the enrichment is 1.18 ± 0.63. Next, “MASGILLNVKEEVTCPICLELLTEPLSLHCGHSFCQACITANHKKSMLYKEGERSCPVCRISYQPENIQPNRHVANIVEKLREVKLSPEEGQKVDHCARHGEKLLLFCQEDSKVICWLCERSQEHRGHHTFLMEEVAQEYHVKLQTALEMLRQKQQEAEKLEADIREEKASWKIQIDYDKTNVSADFEQLREILDWEESNELQNLEKEEEDILKSLTKSETEMVQQTQYMRELISELEHRLQGSMMDLLQGVDGIIKRIENMTLKKPKTFHKNQRRVFRAPDLKGMLDMFRELTDARRYWVDVTLAPNNISHAVIAEDKRQVSSRNPQIMYQARGTRYTFQSFVNFNYCTGVLGSQSITSGKHYWEVDVSKKSAWILGVCAGFQSDAMYNIEQNENYQPKYGYWVIGLQEGVKYSVFQDGSSHTPFAPFIVPLSVIICPDRVGVFVDYEACTVSFFNITNHGFLIYKFSQCSFSKPVFPYLNPRKCTVPMTLCSPSS [rhesus TRIM5α, 332-344 = QARGTRYTFQSFV]”: 1.54 ± 0.19; “MASGILLNVKEEVTCPICLELLTEPLSLHCGHSFCQACITANHKKSMLYKEGERSCPVCRISYQPENIQPNRHVANIVEKLREVKLSPEEGQKVDHCARHGEKLLLFCQEDSKVICWLCERSQEHRGHHTFLMEEVAQEYHVKLQTALEMLRQKQQEAEKLEADIREEKASWKIQIDYDKTNVSADFEQLREILDWEESNELQNLEKEEEDILKSLTKSETEMVQQTQYMRELISELEHRLQGSMMDLLQGVDGIIKRIENMTLKKPKTFHKNQRRVFRAPDLKGMLDMFRELTDARRYWVDVTLAPNNISHAVIAEDKRQVSSRNPQIMYQARGTRYTFQSLTNFNYCTGVLGSQSITSGKHYWEVDVSKKSAWILGVCAGFQSDAMYNIEQNENYQPKYGYWVIGLQEGVKYSVFQDGSSHTPFAPFIVPLSVIICPDRVGVFVDYEACTVSFFNITNHGFLIYKFSQCSFSKPVFPYLNPRKCTVPMTLCSPSS [rhesus TRIM5α, 332-344 = QARGTRYTFQSLT]”: 1 ± 0.051. Take “MASGILLNVKEEVTCPICLELLTEPLSLHCGHSFCQACITANHKKSMLYKEGERSCPVCRISYQPENIQPNRHVANIVEKLREVKLSPEEGQKVDHCARHGEKLLLFCQEDSKVICWLCERSQEHRGHHTFLMEEVAQEYHVKLQTALEMLRQKQQEAEKLEADIREEKASWKIQIDYDKTNVSADFEQLREILDWEESNELQNLEKEEEDILKSLTKSETEMVQQTQYMRELISELEHRLQGSMMDLLQGVDGIIKRIENMTLKKPKTFHKNQRRVFRAPDLKGMLDMFRELTDARRYWVDVTLAPNNISHAVIAEDKRQVSSRNPQIMYQARGTRYTFQSLVNFNYCTGVLGSQSITSGKHYWEVDVSKKSAWILGVCAGFQSDAMYNIEQNENYQPKYGYWVIGLQEGVKYSVFQDGSSHTPFAPFIVPLSVIICPDRVGVFVDYEACTVSFFNITNHGFLIYKFSQCSFSKPVFPYLNPRKCTVPMTLCSPSS [rhesus TRIM5α, 332-344 = QARGTRYTFQSLV]”: the enrichment came out at 0.751 ± 0.15. Next, “MASGILLNVKEEVTCPICLELLTEPLSLHCGHSFCQACITANHKKSMLYKEGERSCPVCRISYQPENIQPNRHVANIVEKLREVKLSPEEGQKVDHCARHGEKLLLFCQEDSKVICWLCERSQEHRGHHTFLMEEVAQEYHVKLQTALEMLRQKQQEAEKLEADIREEKASWKIQIDYDKTNVSADFEQLREILDWEESNELQNLEKEEEDILKSLTKSETEMVQQTQYMRELISELEHRLQGSMMDLLQGVDGIIKRIENMTLKKPKTFHKNQRRVFRAPDLKGMLDMFRELTDARRYWVDVTLAPNNISHAVIAEDKRQVSSRNPQIMYQARGTRYTFQTFTNFNYCTGVLGSQSITSGKHYWEVDVSKKSAWILGVCAGFQSDAMYNIEQNENYQPKYGYWVIGLQEGVKYSVFQDGSSHTPFAPFIVPLSVIICPDRVGVFVDYEACTVSFFNITNHGFLIYKFSQCSFSKPVFPYLNPRKCTVPMTLCSPSS [rhesus TRIM5α, 332-344 = QARGTRYTFQTFT]”: 1.38 ± 0.097. Then “MASGILLNVKEEVTCPICLELLTEPLSLHCGHSFCQACITANHKKSMLYKEGERSCPVCRISYQPENIQPNRHVANIVEKLREVKLSPEEGQKVDHCARHGEKLLLFCQEDSKVICWLCERSQEHRGHHTFLMEEVAQEYHVKLQTALEMLRQKQQEAEKLEADIREEKASWKIQIDYDKTNVSADFEQLREILDWEESNELQNLEKEEEDILKSLTKSETEMVQQTQYMRELISELEHRLQGSMMDLLQGVDGIIKRIENMTLKKPKTFHKNQRRVFRAPDLKGMLDMFRELTDARRYWVDVTLAPNNISHAVIAEDKRQVSSRNPQIMYQARGTRYTFQTFVNFNYCTGVLGSQSITSGKHYWEVDVSKKSAWILGVCAGFQSDAMYNIEQNENYQPKYGYWVIGLQEGVKYSVFQDGSSHTPFAPFIVPLSVIICPDRVGVFVDYEACTVSFFNITNHGFLIYKFSQCSFSKPVFPYLNPRKCTVPMTLCSPSS [rhesus TRIM5α, 332-344 = QARGTRYTFQTFV]”, with 1.29 ± 0.96; and “MASGILLNVKEEVTCPICLELLTEPLSLHCGHSFCQACITANHKKSMLYKEGERSCPVCRISYQPENIQPNRHVANIVEKLREVKLSPEEGQKVDHCARHGEKLLLFCQEDSKVICWLCERSQEHRGHHTFLMEEVAQEYHVKLQTALEMLRQKQQEAEKLEADIREEKASWKIQIDYDKTNVSADFEQLREILDWEESNELQNLEKEEEDILKSLTKSETEMVQQTQYMRELISELEHRLQGSMMDLLQGVDGIIKRIENMTLKKPKTFHKNQRRVFRAPDLKGMLDMFRELTDARRYWVDVTLAPNNISHAVIAEDKRQVSSRNPQIMYQARGTRYTFQTLTNFNYCTGVLGSQSITSGKHYWEVDVSKKSAWILGVCAGFQSDAMYNIEQNENYQPKYGYWVIGLQEGVKYSVFQDGSSHTPFAPFIVPLSVIICPDRVGVFVDYEACTVSFFNITNHGFLIYKFSQCSFSKPVFPYLNPRKCTVPMTLCSPSS [rhesus TRIM5α, 332-344 = QARGTRYTFQTLT]”, with 1.03 ± 0.078. Then “MASGILLNVKEEVTCPICLELLTEPLSLHCGHSFCQACITANHKKSMLYKEGERSCPVCRISYQPENIQPNRHVANIVEKLREVKLSPEEGQKVDHCARHGEKLLLFCQEDSKVICWLCERSQEHRGHHTFLMEEVAQEYHVKLQTALEMLRQKQQEAEKLEADIREEKASWKIQIDYDKTNVSADFEQLREILDWEESNELQNLEKEEEDILKSLTKSETEMVQQTQYMRELISELEHRLQGSMMDLLQGVDGIIKRIENMTLKKPKTFHKNQRRVFRAPDLKGMLDMFRELTDARRYWVDVTLAPNNISHAVIAEDKRQVSSRNPQIMYQARGTRYTFQTLVNFNYCTGVLGSQSITSGKHYWEVDVSKKSAWILGVCAGFQSDAMYNIEQNENYQPKYGYWVIGLQEGVKYSVFQDGSSHTPFAPFIVPLSVIICPDRVGVFVDYEACTVSFFNITNHGFLIYKFSQCSFSKPVFPYLNPRKCTVPMTLCSPSS [rhesus TRIM5α, 332-344 = QARGTRYTFQTLV]”, with 0.815 ± 0.28.
